Assay results published in PubChem BioAssay AID1347041 (National Center for Advancing Translational Sciences (NCATS), 2019).
In all, about 480,000 compounds went through this assay and about 740 (0.15%) were called active. This list was built around the results that the source calls inconclusive (neither active nor inactive); the mix of calls is not that of the screen. Cut-off read from the data, not from the text of the source: active = activity change below about -30%; inconclusive = mostly about -25% to -30%; inactive = weaker than that. Some compounds were tested as several samples or in several runs, with calls that do not always agree.

Molecular target: L-lactate dehydrogenase A chain (Homo sapiens) (UniProt P00338)
Assay: qHTS assay for inhibitors of human lactate dehydrogenase;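 note: values are at about 110 or 230 µM; plate controls were DMSO wells for no effect and wells without enzyme for full effect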
Details: purified LDHA, NADH/diaphorase-resazurin fluorescence; active compounds read low
Procedure, shortened: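 Human LDH5 (2 nM) was incubated with 0.06 mM NADH and 0.2 mM pyruvate for 5 min at room temperature in Tris pH 7.4. Remaining NADH was coupled through diaphorase/resazurin, and resorufin fluorescence was read at 0 and 20 min.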

Activity change, inactive:
COC(=O)c1ccc([C@H]2[C@@H](C(=O)O)c3ccccc3C(=O)N2Cc2ccc(F)cc2)cc1 0.929%, c1ccc(-c2nc3ccccc3s2)cc1 -2.93%, COc1c(Cl)cc(Cl)cc1C(=O)Nc1ccc(CN2CCCCC2)cc1 -0.115%, CCOC(=O)c1ccc(NC(=O)CSc2nccn2-c2cc(C)cc(C)c2)cc1 -1.13%, Cc1cccc(OCC(=O)N/N=C/C=C/c2ccco2)c1 12.4%, COc1ccc(-c2cc3ccc(OS(C)(=O)=O)cc3oc2=O)cc1OC -0.259%, Cc1nn2c(SCC(=O)NCc3ccccc3Cl)nc3ccccc3c2nc1=O -9.67%, NC(=O)c1ccsc1NC(=O)CN1C(=O)NC2(CCCCC2)C1=O -5.39%, COc1ccc(CN(CC2CCC(C(=O)O)CC2)C(=S)Nc2cc(Cl)ccc2OC)cc1 (stereo unspecified) -6.76%, COC(=O)C1(C)NC(c2cccs2)C2C(=O)N(c3ccc(F)cc3)C(=O)C21 (stereo unspecified) -3.35%, Cc1ccc(NC(=O)c2nc(S(=O)(=O)Cc3ccccc3)ncc2Cl)cc1 -6.17%, COc1ccc(S(=O)(=O)Nc2ccc(Nc3nc(C)cc(N(C)C)n3)cc2)cc1C 1.43%, O=C1NC[C@H](Cc2ccccc2)N(CC2CCN(CCCC3CCCC3)CC2)C1=O 0.629%, Cc1cc2nc3ccc(N(C)C)cc3nc2cc1N 18%, CC(=O)Nc1ccc(CNC2CCC(C(F)(F)F)CC2)cc1 (stereo unspecified) 5.48%

Activity change, active:
COC1=C/C(=C/c2c(N)n3nc(-c4ccc(C)cc4)sc3nc2=O)C=CC1=O -30.1%, COc1cc(/C=C(\CC(=O)O)c2nc3ccccc3s2)ccc1OCC(=O)Nc1ccccc1F -34.7%, O=C(c1ccco1)N1CCN(Cc2cccc(F)c2)CC1 -32.1%, Nc1nc(O)c(Sc2ccccc2[N+](=O)[O-])c(=O)[nH]1 -51.7%, CN(Cc1ccccc1)Cc1nc2c(c(=O)n(C)c(=O)n2C)n1CCc1ccccc1 -30.8%, Cc1nn(-c2nc3c(c(=O)n(CC(N)=O)c(=O)n3C)n2Cc2ccccc2)c(C)c1C -32.6%, O=C(NC1CCCC1)c1cc2c(F)cccc2s1 -30.3%, CN(C)CCCNCC(=O)c1c(-c2ccccc2)n(C)c2ccccc12 -36.6%

Activity change, inconclusive:
Cc1ccccc1C(OCC(O)CN1CCN(CCO)CC1)c1ccccc1 (stereo unspecified) -27.7%, COc1cccc(CN2CCN(Cc3cccc(Br)c3)CC2)c1OC -25.4%, COc1ccc(CN2CCN(CCCCOc3ccc(Cl)cc3)CC2)c(OC)c1OC -26.1%, Cc1cccc(NC(=S)NCCc2ccc(S(N)(=O)=O)cc2)c1C -25%, CSc1nc2sc3c(c2c(=O)n1C1CCCCC1)CCN(C)C3 -25%, CN(C)CCOc1cccc(Cl)c1 -26%, O=C(NC(NC(=O)c1ccccc1)c1cccc(I)c1F)c1ccccc1 -27.8%, O=C(C1CCN(Cc2ccccc2)CC1)N1CCN(C/C=C/c2ccccc2)CC1 -29.2%, C=CCC1(NCc2ccco2)CCN(CC)CC1 -27.5%, CCOc1ccccc1CN1CCN(S(=O)(=O)CC)CC1 -27%, Cc1cc(C)c(S(=O)(=O)Nc2ccc(Cl)c(N3CCCS3(=O)=O)c2)c(C)c1 -28.8%, Cc1nnc(SCCN2CCOCC2)n1C -25.3%, CCOc1ccc(-c2nc(C#N)c(NCc3ccccc3Cl)o2)cc1 -29.6%, CCCCN(C)Cc1cc(=O)oc2cc(-c3ccccc3)c(O)cc12 -26.6%, Cc1nc2nc(SCC(=O)Nc3cccc(Cl)c3C)[nH]c2cc1Br -26.7%, CCOc1ccccc1CNC(=O)CCCn1c(=O)c2cccn2c2ccc(F)cc21 -25.5%, COc1ccc(C2CC(C)=NN2c2nc(-c3ccc(F)cc3)cs2)cc1OC (stereo unspecified) -26.4%, CCOC(=O)C(C)Oc1ccc2c(=O)c(Oc3ccccc3)c(C)oc2c1 (stereo unspecified) -28%, O=C(OCCOc1cccc(Cl)c1)c1cc(=O)c2ccccc2o1 -25.8%, O=C(N/C(=C\c1cccc(Br)c1)C(=O)N1CCOCC1)c1ccco1 -25.7%, O=C(Nc1ccc(OC(F)(F)F)cc1)c1nc2ccccc2nc1N1CCCCC1 -26.2%, O=C(/C=C/c1ccc(-c2cc(Cl)ccc2Cl)o1)c1ccc(Cl)cc1 -27.5%, O=[N+]([O-])c1ccc(Nc2ccc(Cl)cc2)c2nonc12 -28.7%
